Values joined by “and” are separate entries in the source; they are usually repeats but may differ in a detail not shown here. Identical values can stand only once. In all, about 400,000 compounds went through this assay and about 2,200 (0.55%) were called active. Inconclusive results, whose numbers are uncertain, are shown with a selection of clear calls. Calls come from the whole dose curve; as a rule, active = well fitted inhibition curve with a large enough effect; inconclusive = small, poorly fitted or top-dose-only effect, or another doubt; inactive = no such curve, though single readings can be large or run the other way. Where the call is inconclusive, the potency comes from a doubtful curve fit. Residues, ends and D or L forms follow the SMILES beside them.
Target: DNA polymerase kappa (Homo sapiens) (UniProt Q9UBT6)
UniProt Q9UBT6, sequence (Q9UBT6 whole entry, looked up): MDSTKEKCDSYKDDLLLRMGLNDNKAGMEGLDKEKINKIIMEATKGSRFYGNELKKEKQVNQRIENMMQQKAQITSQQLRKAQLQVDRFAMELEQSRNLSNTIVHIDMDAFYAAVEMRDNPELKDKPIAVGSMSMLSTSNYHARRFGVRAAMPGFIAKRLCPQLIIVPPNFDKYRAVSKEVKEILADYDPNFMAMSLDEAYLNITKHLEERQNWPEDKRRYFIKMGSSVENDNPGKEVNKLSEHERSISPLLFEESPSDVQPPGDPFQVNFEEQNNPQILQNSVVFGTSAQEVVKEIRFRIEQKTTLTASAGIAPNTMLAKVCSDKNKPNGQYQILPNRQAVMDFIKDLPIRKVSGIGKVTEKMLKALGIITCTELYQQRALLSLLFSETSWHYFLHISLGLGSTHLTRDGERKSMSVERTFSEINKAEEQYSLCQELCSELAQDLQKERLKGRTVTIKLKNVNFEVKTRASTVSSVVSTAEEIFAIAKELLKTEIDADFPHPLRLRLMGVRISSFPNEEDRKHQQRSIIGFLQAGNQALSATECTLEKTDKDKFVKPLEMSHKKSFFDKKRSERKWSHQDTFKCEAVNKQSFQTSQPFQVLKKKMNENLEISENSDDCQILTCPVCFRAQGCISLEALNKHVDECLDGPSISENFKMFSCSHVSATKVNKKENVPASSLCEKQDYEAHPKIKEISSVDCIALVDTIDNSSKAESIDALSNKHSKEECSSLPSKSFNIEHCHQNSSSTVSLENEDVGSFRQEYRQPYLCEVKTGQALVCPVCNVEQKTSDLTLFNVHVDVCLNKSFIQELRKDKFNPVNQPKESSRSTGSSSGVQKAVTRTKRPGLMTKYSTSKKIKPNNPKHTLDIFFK
Assay: qHTS for Inhibitors of Polymerase Kappa
Details: purified Pol kappa, fluorescent DNA synthesis assay, 10 min; series mostly up to 107 µM
Method in brief: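 Enzyme at 10 nM met test compounds for 15 min at room temperature. Substrate addition (50 nM final) began the reaction, which was monitored by fluorescence at 0 and 10 min.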
% is set by controls: 0 for no effect and ±100 for the full control effect; potency is the fitted concentration of half-maximal effect; tags give direction and shape of the fitted curve.

| Compound | Potency | activity, negative = inhibition |
| --- | --- | --- |
| CCN(CC)c1ccc(/C=N/OCC(=O)Nc2cccc(C)c2)cc1 | inconclusive: 79.4 µM [inhibitor, partial curve, poor fit] | – |
| Cc1ccc2cc(CN(Cc3nnnn3Cc3ccco3)CC3CCCO3)c(=O)[nH]c2c1C (stereo not given) | inconclusive: 89.1 µM [inhibitor, partial curve, poor fit] | – |
| COc1ccc(C(C(=O)NC(C)(C)C)N(C(=O)CNC(=O)c2cccs2)c2cccnc2)cc1OC (stereo not given) | inactive | – |
| Cc1cc(C(F)(F)F)c2c(n1)sc1c(O)cc(=O)[nH]c12 | active: 70.8 µM | – |
| CCOC(=O)c1cc(OC(=O)c2ccc(C)cc2)n(-c2ccccc2)n1 | inactive | – |
| Cc1ccc(CNC(=O)CCc2nnc3ccc(N4CCC5(CC4)OCCO5)nn23)cc1 | active: 79.4 µM | – |
| CC(=O)N[C@@H](CC(=O)O)C(=O)N[C@@H](CCC(=O)O)C(=O)O (Ac-Asp-Glu-OH) | inconclusive: 12.6 µM [inhibitor, partial curve, poor fit] | inactive: -2.04% [at 19.4 µM] and inactive: -1.36% [at 12 µM] |
| Cc1noc(C)c1COc1ccc(C(=O)OCC(=O)N2c3ccccc3NC(=O)C2(C)C)cc1 | inconclusive: 89.1 µM [inhibitor, single point] | – |
| Cc1ccccc1-n1nc(CO)c(C(=O)NCc2cccs2)n1 | inactive | – |
| O=C(O)CSc1cc(NS(=O)(=O)c2ccc(Br)cc2)c2ccccc2c1O | active: 89.1 µM | – |
| CO[C@@]1(NC(=O)C2SC(=C(C(N)=O)C(=O)O)S2)C(=O)N2C(C(=O)O)=C(CSc3nnnn3C)CS[C@@H]21 (stereo not given in full) | active: 44.7 µM | – |
| Cc1ccc(NC(=O)CSc2nc(-c3ccco3)nc3cc(=O)[nH]n23)cc1C | inconclusive: 79.4 µM [inhibitor, partial curve] | – |
| COc1cccc(N2CCN(c3ccc4nnc(CCC(=O)Nc5ncccc5C)n4n3)CC2)c1 | inactive | – |
| O=C(CS(=O)(=O)c1cn(CC(=O)N2CCOCC2)c2ccccc12)Nc1ccccc1 | inactive | – |
| CC(=O)NC1=CC(=O)c2nonc2C1=O | inconclusive: 56.2 µM [inhibitor, partial curve, poor fit] | – |
| Nc1ccc(O)c(C(=O)O)c1 | active: 5.97 µM and active: 1.06 µM | – |
| COc1ccc(Oc2ncc3nc(-c4ccc(F)cc4)c(=O)n(C)c3n2)cc1 | inconclusive: 15.8 µM [inhibitor, partial curve, poor fit] | – |
| c1ccc(CN(Cc2ccco2)C(c2ccncc2)c2nnnn2C2CCCC2)cc1 (stereo not given) | inconclusive: 22.4 µM [inhibitor, full curve, poor fit] | – |
| H-HADGVFTSDFSRLLGQLSAKKYLESLI-NH2 | inactive | – |
| O=C(O)C(C(=O)/C=C/c1ccco1)=C1SCCS1 | active: 44.7 µM | – |
| Cc1cc2c(=O)n(C)c(SCC(=O)Nc3ccccc3)nc2s1 | inactive | – |
| O=C(O)C1Cc2ccccc2CN1C(=O)COc1ccc(Br)cc1 (stereo not given) | active: 79.4 µM | – |

| Compound | Potency | activity, negative = inhibition |
| --- | --- | --- |
| O=C(CSc1ccccc1)Nc1ccc(-c2nc3ccccc3[nH]2)cc1 | inconclusive: 100 µM [inhibitor, single point] | – |
| CN(C(=O)COC(=O)COc1ccc(Cl)cc1Cl)c1c(N)n(Cc2ccccc2)c(=O)[nH]c1=O | inconclusive: 2.51 µM [inhibitor, full curve, poor fit] | – |
| Cc1cccc(N2CCN(C(=O)CCS(=O)(=O)c3ccc(Br)cc3)CC2C)c1 (stereo not given) | active: 89.1 µM | – |
| O=C(O)c1ccccc1Nc1ccc([N+](=O)[O-])c2nonc12 | inconclusive: 89.1 µM [inhibitor, partial curve, poor fit] | – |
| N#C/C(=C/c1ccc(O)c(O)c1)C(=O)OC/C=C/c1ccccc1 | inconclusive: 4.47 µM [inhibitor, partial curve] | – |
| COc1ccc(/C(N)=N/OC(=O)c2cccs2)cc1OC | inconclusive: 100 µM [inhibitor, single point] | – |
| COc1ccc(S(=O)(=O)N(CC(=O)NCc2ccco2)c2ccccc2OC)cc1 | inconclusive: 79.4 µM [inhibitor, partial curve, poor fit] | – |
| CCOC(=O)Cc1csc(NC(=O)NC2(C(F)(F)F)Oc3cc(Cl)c(Cl)cc3O2)n1 | active: 20 µM | – |
| Cc1cc(N2CCN(C3CCCCC3)CC2)n2nc(C)nc2n1 | inconclusive: 100 µM [inhibitor, single point] | – |
| NC(=O)c1ccc2nc(-c3ccc(Oc4ccc(Cl)cc4)cc3)[nH]c2c1 | inconclusive: 18.9 µM [inhibitor, partial curve, poor fit] | – |
| CC(C)(C)c1ccc(-c2nc(SCC(=O)Nc3ccc(Cl)cc3)[nH]c(=O)c2C#N)cc1 | inconclusive: 89.1 µM [inhibitor, partial curve, poor fit] | – |
| Cc1ccc2nccc(/C=C/c3ccc(N(C)C)cc3)c2c1 | inactive | – |
| N#CC(C#N)=C1C=C2C=C(N3CCCCC3)CCC2CC1 (stereo not given) | inactive | – |
| CN1CCc2nc3sc(C(=O)C45CC6CC(CC(C6)C4)C5)c(N)c3cc2C1 | inconclusive: 89.1 µM [inhibitor, partial curve, poor fit] | – |
| CC(=O)c1sc2nc(CSc3nnnn3-c3ccccc3)[nH]c(=O)c2c1C | inconclusive: 89.1 µM [inhibitor, single point] | – |
| CC1=C(CC(=O)NCC(=O)NCC(=O)O)c2cc(F)ccc2/C1=C/c1ccc(S(C)=O)cc1 (stereo not given) | inactive | – |
| O=C1CC(c2ccc(OCCCCCOc3ccc(C4CC(=O)NC4=O)cc3)cc2)C(=O)N1 (stereo not given) | inconclusive: 100 µM [inhibitor, partial curve, poor fit] | – |
| CN1/C(=C\C=O)C(C)(C)c2ccccc21 | inactive | – |
| CCC1CCCCN1C(=O)CCc1nnc(C2CCCCC2)o1 (stereo not given) | inactive | – |
| Cc1cnc(C(=O)NCC(=O)Nc2ccccc2Br)cn1 | inconclusive: 89.1 µM [inhibitor, single point] | – |
| N#CC(C#N)=Cc1cccn1-c1ccc(C(=O)O)cc1 | active: 39.8 µM | – |
| CC(C)N=c1scc(-c2cccs2)n1/N=C/c1ccc(O)c(O)c1O | inconclusive: 79.4 µM [inhibitor, single point] | – |
